From PubChem BioAssay AID504466 (National Center for Advancing Translational Sciences (NCATS), 2011)
Among all 330,000 compounds or so, about 4,200 (1.3%) were called active. This list was built around the results that the source calls inconclusive (neither active nor inactive); the mix of calls is not that of the screen. The call rests on the fitted dose curve; in most records, active means well fitted activation curve with a large enough effect; inconclusive means small, poorly fitted or top-dose-only effect; inactive means no such curve, though single readings can be large or run the other way. Potencies of inconclusive entries are doubtful fits and often do not repeat.

experiment: qHTS screen for small molecules that induce genotoxicity in human embryonic kidney (HEK293T) cells expressing luciferase-tagged ELG1; conditions: HEK293T ELG1-luciferase reporter, luminescence, 16 h; series mostly up to 46 µM; activity change, positive = activation: at the top concentration; further: nearly all actives have a fitted effect of over 60% in size; on activity change, positive = activation: % of control where 0% means no effect
Outline: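 HEK293T cells expressing luciferase-tagged ELG1 were treated with compound or DMSO for 16 hr at 37°C. Luciferase activity was then read after 30 min with ONE-Glo at room temperature; rising signal flags genetic stress.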
Potency means the concentration at half of the fitted maximal effect; tags describe the fitted curve by direction and shape.

SMILES | activity change, positive = activation | Potency
COc1ccc(NC(=S)N2CCC(NC(=O)c3ccco3)CC2)cc1 | inactive: 3.14% | 
NC(=O)C1CCCN(C(=O)c2ccc(-c3cccc(Cl)c3Cl)o2)C1 (configuration not stated) |  | inconclusive: 18.3 µM [activator, partial curve]
O=C(O)c1ccc(/C=N/NC(=O)c2ccc3c(c2)OCCO3)cc1 |  | inconclusive: 9.2 µM [activator, partial curve]
Clc1ccc2nc(N3CCN(c4ccccc4)CC3)sc2c1 |  | inconclusive: 2.06 µM [activator, full curve]
C=CCn1c(NC(=O)c2ccc(C)cc2)nc2ccccc21 |  | inconclusive: 14.6 µM [activator, partial curve, poor fit]
CC(=O)N1N=C(c2cccc(Cl)c2)OC1c1ccc(C(C)C)cc1 (configuration not stated) |  | active: 18.4 µM
O=C(NC(=S)Nc1ccc(N2CCCCC2)cc1)c1cccs1 |  | active: 2.91 µM
CN(C)c1ccc(CN(C(=O)c2cc3ccccc3oc2=O)C2CCS(=O)(=O)C2)cc1 (configuration not stated) |  | inconclusive: 10.3 µM [activator, partial curve]
COc1ccc(NC(=O)c2cccnn2)cc1 |  | inconclusive: 20.6 µM [activator, partial curve, poor fit]
CCOC(=O)CNC(=O)c1sc(NC(=O)c2ccccc2F)nc1C |  | active: 9.2 µM
Cc1cc(OCC(=O)Nc2ccc3oc(=O)ccc3c2)ccc1Cl |  | inconclusive: 20.6 µM [activator, partial curve, poor fit]
COC(=O)c1ccc2nc(NC(=O)C3CCCCC3)sc2c1 |  | inconclusive: 5.8 µM [activator, partial curve]
CCOc1ccccc1C(=O)Nc1nnc(SCC(=O)Nc2cc(C)on2)s1 |  | inconclusive: 29.1 µM [activator, single point]
CCN(CC)CCCNC(=S)N(CCO)Cc1cc2cc3c(cc2[nH]c1=O)OCCO3 | inactive: 1.92% | 
O=C(Nc1nnc(-c2cccs2)o1)c1cccc(C(F)(F)F)c1 |  | inconclusive: 29.1 µM [activator, single point]
CC(C)(C)c1ccc(-c2nnc(SCC(=O)NC3CCS(=O)(=O)C3)n2N)cc1 (configuration not stated) | inactive: 9.63% | 
CSCCC(NC(=O)OC(C)(C)C)C(=O)Oc1ccc2c(=O)c(-c3ccc4c(c3)OCCO4)coc2c1 (configuration not stated) |  | inconclusive: 1.84 µM [activator, full curve]
Nc1ccccc1NC(=O)CCn1c(=S)[nH]c2ccccc2c1=O | inactive: -0.119% | 
Cc1cccn2c(=O)nc(SCC(=O)c3ccccc3)nc12 |  | active: 20.6 µM
CCCCCC(=O)N/N=C/c1ccc(N(C)C)cc1 |  | inconclusive: 14.6 µM [activator, partial curve]
COCCn1c(C)cc(C(=O)CSc2nc3ccccc3c(=O)n2Cc2ccco2)c1C |  | inconclusive: 2.59 µM [activator, partial curve]
C/C(=C\C(=O)c1ccc(C)o1)Nc1ccc2c(c1)OCO2 |  | inconclusive: 23.1 µM [activator, partial curve, poor fit]
COc1cc(/C=C(\C#N)c2nn(CCO)c(N)c2C#N)cc(OC)c1OC |  | inconclusive: 14.6 µM [activator, partial curve, poor fit]
CCCSc1ccc2nc(-c3ccccc3)cn2c1 |  | inconclusive: 0.651 µM [activator, partial curve, poor fit]

SMILES | activity change, positive = activation | Potency
COc1ccc(S(=O)(=O)N/N=C(/C)c2ccco2)cc1 |  | inconclusive: 29.1 µM [activator, single point]
COc1ccc(-c2c(C#Cc3ccsc3)c3cc(-c4ccc5cc[nH]c5c4)ccc3n2C)cc1 |  | inconclusive: 29.1 µM [activator, partial curve, poor fit]
COc1cccc(N/C=C/C(=O)c2ccc(OC)c(OC)c2)c1 |  | inconclusive: 18.3 µM [activator, partial curve]
COc1ccc(C(=O)N2CCC(n3nccc3NC(=O)C3CCOC3)CC2)cc1 (configuration not stated) | inactive: 6.35% | 
CCOc1cc(C(=O)O/N=C(\N)c2ccc([N+](=O)[O-])cc2)cc(OCC)c1OCC | inactive: 0.941% | 
Oc1ccc(/C=N/Nc2ccc(C(F)(F)F)cn2)cc1O |  | active: 20.6 µM
Cc1cccc(NC(=O)c2onc3c2CCCC3)c1C |  | inconclusive: 9.2 µM [activator, partial curve, poor fit]
CC12CCC(=O)N1C(C(=O)Nc1ccc(F)cc1)CS2 (configuration not stated) | inactive: 1.53% | 
COc1cc(C(=O)Nc2cc(C)nn2-c2ccccc2)cc(OC)c1OC |  | inconclusive: 20.6 µM [activator, partial curve, poor fit]
Brc1ccc(C2Nc3cccc4cccc(c34)N2)o1 | inactive: -0.87% | 
Cc1nc2ccn(Cc3ccccc3)c(=O)c2cc1C(=O)N1CCN(c2ccccc2)CC1 | inactive: -6.32% | 
CC(C)c1ccc(NC(=O)C2=NNC(=O)CC2)cc1 |  | inconclusive: 16.4 µM [activator, partial curve]
Cc1ccc(C(=O)COC(=O)c2cccc(O)c2)s1 | inactive: 1.54% | 
On1c(-c2ccccc2)nc2ccccc21 | inactive: 5.37% | 
Clc1ccccc1-c1nc2ccccc2[nH]1 |  | inconclusive: 9.2 µM [activator, partial curve, poor fit]
CC1CCCC(NC(=O)CSc2ncccn2)C1C (configuration not stated) | inactive: 5.68% | 
CCN(CC)S(=O)(=O)c1ccc(N/N=C(\C)c2ccc(OC)cc2O)nc1 |  | inconclusive: 20.6 µM [activator, partial curve, poor fit]
Cc1cc(Cl)ccc1OCC(=O)NCC(c1cccs1)N1CCOCC1 (configuration not stated) |  | inconclusive: 16.4 µM [activator, single point]
S=C(c1ccc(-c2cccc(Cl)c2)o1)N1CCOCC1 |  | active: 3.55 µM
O=C(O)c1ccccc1C(=O)Nc1ccc(-c2csc(-c3ccccc3)n2)cc1 |  | inconclusive: 23.1 µM [activator, partial curve, poor fit]
Cc1ccc(C)n1C1CCS(=O)(=O)C1 (configuration not stated) |  | inconclusive: 20.6 µM [activator, partial curve, poor fit]
Cc1ccnc(NC(=O)CCC2CCCCC2)c1 |  | active: 8.2 µM
O=C(O)c1cccc(NC(=O)c2ccc3c(c2)C(=O)N(CC2CCCO2)C3=O)c1 (configuration not stated) | inactive: 0.949% | 
COc1ccc(C(=O)CSc2nnc(CNc3ccc(C)cc3C)o2)cc1 |  | inconclusive: 31.6 µM [activator, single point]

SMILES | activity change, positive = activation | Potency
Cc1cc(C)nc(/N=C(\N)C2=C(O)CC(C)(C)CC2=O)n1 |  | inconclusive: 32.6 µM [activator, partial curve, poor fit]
CC(=O)OC(C)(C)C1Cc2cc3ccc(=O)oc3cc2O1 (configuration not stated) |  | inconclusive: 23.1 µM [activator, partial curve, poor fit]
Nc1nc2nn(-c3ccccc3)nc2c(=O)[nH]1 |  | inconclusive: 20.6 µM [activator, partial curve]
Cc1cc(NC(=O)c2cccc(COc3ccc(Br)cc3)c2)no1 |  | active: 0.651 µM
CN(C)S(=O)(=O)c1ccc(NC(=O)c2ccc3ncsc3c2)cc1 |  | inconclusive: 16.4 µM [activator, partial curve, poor fit]
CCCCc1cc2ccccc2c(OCCN(C)C)n1 | inactive: -0.917% | 
CCN1CCc2nc(NC(=O)c3ccc4c(c3)OCCO4)sc2C1 |  | inconclusive: 20.6 µM [activator, partial curve, poor fit]
O=C(NCc1ccco1)c1ccc2nc3sc4c(c3c(=O)n2c1)CCCC4 |  | inconclusive: 14.6 µM [activator, partial curve, poor fit]
O=C(C1=C[C@H](C2CC2)C[C@H](OCc2ccc(CO)cc2)O1)N1CCN(Cc2ccc3c(c2)OCO3)CC1 | inactive: -9.65% | 
CCCNC(=O)C(Cc1ccc(Cl)cc1)NC(=O)c1ccc(-c2ccccc2)cc1 (configuration not stated) |  | inconclusive: 23.1 µM [activator, partial curve, poor fit]
O=C(N/N=C/c1cccc(Oc2ccccc2)c1)c1ccccc1F |  | inconclusive: 20.6 µM [activator, single point]
CN(C)c1ccc(Cl)cc1N | inactive: -0.588% | 
Cc1c(C(=O)N2CCC(C)CC2)sc2ncn(CC(=O)N3CCC(C)CC3)c(=O)c12 | inactive: 0.271% | 
Cc1nc2cc(N=NC3=C(O)CCCC3=O)ccc2s1 |  | inconclusive: 18.4 µM [activator, partial curve]
C=CCC[C@@H](Cc1ccc(F)cc1)C(=O)OC[C@H](Cc1c[nH]c2ccccc12)NC(=O)[C@@H](CC=C)CC(=O)NCCO | inactive: -6.34% | 
CC(=O)c1ccc2c(c1)c1ccccc1n2CC(C)C |  | inconclusive: 23.1 µM [activator, partial curve, poor fit]
COC(=O)c1cc(-c2ccc(OC)cc2F)nc2nc(SC)[nH]c(=O)c12 | inactive: 0.163% | 
C=CCN1C(=O)C(C)(C)Nc2ccccc21 | inactive: -0.334% | 
Cc1ccc(C(=O)NCCn2cc(SCC(=O)Nc3cc(C)on3)c3ccccc32)cc1 |  | inconclusive: 2.59 µM [activator, partial curve, poor fit]
CC(=O)Oc1ccccc1/C=C/c1ccc2ccccc2[n+]1C |  | inconclusive: 16.4 µM [activator, single point]
O=C(NCCc1ccc(Cl)cc1)c1cccs1 |  | inconclusive: 6.51 µM [activator, single point]
Cc1cc(C(=O)CN2C(=O)NC3(CCCCC3C)C2=O)c(C)n1Cc1cccs1 (configuration not stated) |  | inconclusive: 14.6 µM [activator, partial curve]
CNc1cccc2c1C(=O)c1ccccc1C2=O |  | inconclusive: 25.9 µM [activator, partial curve, poor fit]
CCOCCCNC(=O)c1ccc2c(=O)n(Cc3ccc4c(c3)OCO4)c(=S)[nH]c2c1 |  | inconclusive: 23.1 µM [activator, single point]
